Source: PubChem BioAssay AID504332 (National Center for Advancing Translational Sciences (NCATS), 2011)
The whole screen tested about 350,000 compounds, of which about 31,000 (8.9%) were called active. Inconclusive results, whose numbers are uncertain, are shown with a selection of clear calls. Calls follow the shape of the dose curve; as a rule, active = well fitted inhibition curve with a large enough effect; inconclusive = small, poorly fitted or top-dose-only effect; inactive = no such curve, though single readings can be large or run the other way. Potencies beside an inconclusive call are fits to weak or partial responses and may not hold up.

What follows are compounds tested against Histone-lysine N-methyltransferase EHMT2 (Homo sapiens) (UniProt Q96KQ7) (assay: qHTS Assay for Inhibitors of Histone Lysine Methyltransferase G9a). Conditions: G9a H3K9 monomethylation, AlphaScreen, 2 h; activity, negative = inhibition: at 59 µM (top of the series) unless noted.
Chain of UniProt Q96KQ7 (Q96KQ7 whole entry, looked up): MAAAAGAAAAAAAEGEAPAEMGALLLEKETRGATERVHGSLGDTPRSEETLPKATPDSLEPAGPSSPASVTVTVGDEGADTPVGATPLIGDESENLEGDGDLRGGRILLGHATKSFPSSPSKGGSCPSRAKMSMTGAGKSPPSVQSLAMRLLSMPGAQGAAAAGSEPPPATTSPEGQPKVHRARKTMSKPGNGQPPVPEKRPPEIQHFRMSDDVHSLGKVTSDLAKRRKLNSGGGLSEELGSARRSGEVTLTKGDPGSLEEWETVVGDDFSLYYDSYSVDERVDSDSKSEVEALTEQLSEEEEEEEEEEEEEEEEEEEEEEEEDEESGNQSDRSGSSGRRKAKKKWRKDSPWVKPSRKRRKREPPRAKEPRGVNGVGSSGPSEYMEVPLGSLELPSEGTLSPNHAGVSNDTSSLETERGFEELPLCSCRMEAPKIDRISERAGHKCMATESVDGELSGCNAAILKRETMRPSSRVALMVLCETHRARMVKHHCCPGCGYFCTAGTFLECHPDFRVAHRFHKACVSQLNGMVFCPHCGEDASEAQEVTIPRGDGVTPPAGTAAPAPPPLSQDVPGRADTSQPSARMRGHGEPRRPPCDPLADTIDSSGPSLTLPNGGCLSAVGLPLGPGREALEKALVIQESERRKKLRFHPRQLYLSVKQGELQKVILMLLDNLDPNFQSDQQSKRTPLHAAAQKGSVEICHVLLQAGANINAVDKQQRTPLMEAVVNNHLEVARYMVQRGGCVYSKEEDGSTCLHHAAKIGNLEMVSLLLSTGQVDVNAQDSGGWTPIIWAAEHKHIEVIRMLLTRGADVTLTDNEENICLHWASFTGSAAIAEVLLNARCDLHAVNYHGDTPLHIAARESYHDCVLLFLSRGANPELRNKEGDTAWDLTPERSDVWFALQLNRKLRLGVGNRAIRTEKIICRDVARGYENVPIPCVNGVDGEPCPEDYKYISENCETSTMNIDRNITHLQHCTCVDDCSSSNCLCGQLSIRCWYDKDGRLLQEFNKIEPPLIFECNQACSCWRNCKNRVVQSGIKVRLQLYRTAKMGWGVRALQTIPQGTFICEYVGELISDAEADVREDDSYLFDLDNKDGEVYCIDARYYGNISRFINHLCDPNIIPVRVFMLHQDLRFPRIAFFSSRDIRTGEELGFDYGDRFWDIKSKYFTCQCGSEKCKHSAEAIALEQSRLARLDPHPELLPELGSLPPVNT
In short: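 G9a (20 nM) preincubated 15 min RT with compounds, then 500 nM biotinylated H3K9 peptide and 20 uM SAM added; 2 h RT reaction. Monomethyl-H3K9 product detected by AlphaScreen with anti-H3K9me1 antibody, streptavidin donor and anti-rabbit IgG acceptor beads.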
% is scaled to controls: 0 for no effect and ±100 for the full control effect; potency is read from the fitted curve at half-maximal effect; tags tell the direction and shape of the fitted curve.
Also: nearly all actives have a fitted effect of over 75% in size.

| Structure (SMILES) | Potency | activity, negative = inhibition |
| --- | --- | --- |
| CCc1nn(CC(=O)NCCCN(CC)CC)c(=O)c2cc3occc3n12 | inactive |  |
| CC1CCCN(CC(O)COCc2ccc3c(c2)OCO3)C1 (stereo not given) | inconclusive: 28.2 µM [inhibitor, full curve] |  |
| O=C(NC(=S)Nc1ccc(N2CCOCC2)cc1)c1ccc2c(c1)OCCO2 | active: 10 µM |  |
| CCN(CC)c1nc2ccccc2nc1C(C#N)C(=O)NCCc1ccccc1 (stereo not given) | inconclusive: 6.31 µM [inhibitor, single point] |  |
| Cn1c(=O)c2c(-c3ccc(Br)cc3)n(Cc3ccc(F)cc3)cc2n(C)c1=O | inconclusive: 11.2 µM [inhibitor, partial curve] |  |
| C=CCSc1nnc(C)c(/C=C/Nc2ccc(Cl)cc2)n1 | inconclusive: 50.1 µM [inhibitor, partial curve] |  |
| Cn1c(C(=O)NCC2CCCO2)cc2c(=O)n(C)c3ccccc3c21 (stereo not given) | inconclusive: 20 µM [inhibitor, full curve] |  |
| CC(C(=O)OCC(=O)c1ccccc1)N1C(=O)c2ccccc2C1=O (stereo not given) | inactive |  |
| CC(C)C(=O)NC(NC(=S)NC1CCS(=O)(=O)C1)C(Cl)(Cl)Cl (stereo not given) | inconclusive: 20 µM [inhibitor, single point] |  |
| CCN(CC(=O)NC1CCS(=O)(=O)C1)S(=O)(=O)c1ccc(Cl)c(C(F)(F)F)c1 (stereo not given) | inactive |  |
| CCCCCCCn1c(C)nnc1-c1cnn(C)c1N | inactive |  |
| Clc1ccc(CNc2nc(CN3CCOCC3)nc3scc(-c4ccccc4)c23)cc1 | inconclusive: 79.4 µM [inhibitor, single point] |  |
| CC[C@]1(c2ccccc2)NC(=O)N(C)C1=O | inactive |  |
| CC(=O)c1c(C)n(-c2ccc(C)cc2C)c2ccc(O)cc12 |  | inactive: -3.71% [at 12.7 µM] |
| CN(C(=O)COC(=O)Cc1c(F)cccc1Cl)c1c(N)n(Cc2ccccc2)c(=O)[nH]c1=O |  | inactive: 6.47% [at 12.7 µM] |
| O=C(NCC1CCCO1)c1ccccc1-c1nc(-c2ccc(Cl)cc2)no1 (stereo not given) | inconclusive: 44.7 µM [inhibitor, partial curve, poor fit] |  |
| CCOc1ccccc1C(=O)N/N=C/c1coc2ccc(Cl)cc2c1=O | inactive |  |
| CCc1ccccc1NC(=O)CN1CCN(C(=O)c2cccc(-n3cnnn3)c2)CC1 | inconclusive: 22.4 µM [inhibitor, partial curve, poor fit] |  |
| O=C(CSC1=NCCN1)Nc1cccc([N+](=O)[O-])c1 | inconclusive: 79.4 µM [inhibitor, single point] |  |
| COc1ccc(NC(=O)c2cc(NC(=O)C3CCCCC3C(=O)O)ccc2N2CCOCC2)cc1 (stereo not given) | inconclusive: 89.1 µM [inhibitor, single point] |  |
| CCN(CC)CCC(c1ccc(N(C)C)cc1)c1c(O)cc(OC)cc1OC (stereo not given) | inconclusive: 31.6 µM [inhibitor, single point] |  |
| Cc1cc2ccccc2c(=O)n1CC(=O)NCC(=O)N1CCN(c2ccccc2)CC1 | inactive |  |
| Cc1ccc2c(c1)c1c(n2CC(O)CNC2CCCC2)CCCC1 (stereo not given) | active: 20 µM |  |
| Oc1ccc(NC(=S)N=Nc2c(O)[nH]c3ccc(Br)cc23)cc1 | inconclusive: 44.7 µM [inhibitor, partial curve, poor fit] |  |

| Structure (SMILES) | Potency | activity, negative = inhibition |
| --- | --- | --- |
| Cc1cc(C)nc(NC(N)=S)n1 | inconclusive: 44.7 µM [inhibitor, partial curve, poor fit] |  |
| CCN(CC)c1ccc(C(=O)NNC(=O)CN2C(=O)NC(C)(c3ccccc3)C2=O)cc1 (stereo not given) | inactive |  |
| CCCC(C(=O)O)n1c(O)c(C=C2N=c3ccccc3=N2)sc1=S (stereo not given) | inconclusive: 39.8 µM [inhibitor, single point] |  |
| O=C(NN1C(=O)NC2(CCCCC2)C1=O)c1ccc(-c2ccc([N+](=O)[O-])cc2)o1 | active: 79.4 µM |  |
| S=C(Nc1cccnc1)NC1CCCCCCC1 | inactive |  |
| CCn1c(SCC(=O)Nc2cccc(NC(C)=O)c2)nnc1-c1ccco1 | inactive |  |
| COc1ccccc1CNc1ncncc1-c1ccc(C(=O)N(C)C)cc1 |  | inactive: -9.75% [at 0.501 µM] |
| COc1cccc(-c2nc(S(=O)(=O)c3ccccc3)c(N3CCOCC3)o2)c1 |  | inactive: -43% [at 12.7 µM] |
| CC(C)N1CCc2c(sc(NC(=O)Cc3ccccc3)c2C#N)C1 | inconclusive: 89.1 µM [inhibitor, single point] |  |
| CCOC(=O)c1ccc(-n2c(CN3CCN(CCO)CC3)nc3ccc([N+](=O)[O-])cc3c2=O)cc1 | inconclusive: 79.4 µM [inhibitor, partial curve, poor fit] |  |
| O=C(O)C1CCN(C(=O)c2ccco2)CC1 | inconclusive: 89.1 µM [inhibitor, single point] |  |
| Cc1nc(C(=O)NCCC(C)C)sc1C1(C)CC(c2cccc([N+](=O)[O-])c2)=NO1 (stereo not given) |  | inconclusive: -66.5% [inhibitor] |
| COc1ccccc1NC(=O)c1csc2c1CCC(C)C2 (stereo not given) | inconclusive: 50.1 µM [inhibitor, single point] |  |
| COc1ccc(-c2nn(-c3ccccc3)cc2/C=N/N=C(N)N)cc1OC | inconclusive: 79.4 µM [inhibitor, single point] |  |
| COc1ccc(C(=O)CSc2nnc(NC(=O)C3CC(=O)N(c4cccc(OC)c4)C3)s2)cc1 (stereo not given) | inconclusive: 28.2 µM [inhibitor, single point] |  |
| Cc1ccc(OCC(=O)Nc2ccc(S(=O)(=O)Nc3cc(C)on3)cc2)c(Br)c1 | inconclusive: 2.82 µM [inhibitor, full curve, poor fit] |  |
| Cc1cc(C)cc(NC(=O)C2CCCN2S(=O)(=O)c2ccc3nc(-c4ccccc4)[nH]c3c2)c1 (stereo not given) | inconclusive: 31.6 µM [inhibitor, partial curve, poor fit] |  |
| CCc1ccc(C(=O)C(C)OC(=O)CNS(=O)(=O)c2ccc(C)cc2)cc1 (stereo not given) | inconclusive: 0.891 µM [inhibitor, partial curve, poor fit] |  |
| COc1ccc(C(CC(=O)NCc2ccc(Cl)cc2)N2Cc3ccccc3C2=O)cc1OC (stereo not given) | inactive |  |
| COc1ccc(Cc2nn3c(-c4cc(OC)c(OC)c(OC)c4)nnc3s2)cc1 | inconclusive: 7.08 µM [inhibitor, single point] |  |
| COC(=O)c1sc(-c2ccccc2)cc1NC(=O)Nc1ccc(F)cc1 | inactive |  |
| O=C(Cn1c2ccc(F)cc2c2nc3n(c(=O)c21)CCS3)NCC1CCCO1 (stereo not given) |  | inactive: -5.33% [at 12.7 µM] |
| COc1ccccc1NC(=O)C1=C(C)NC(SCC(=O)c2ccc(C)cc2)=C(C#N)C1c1ccco1 (stereo not given) | inconclusive: 3.55 µM [inhibitor, full curve, poor fit] |  |
| N#CCCn1c(=O)c(-c2cccs2)nc2cnc(OCc3ccccc3)nc21 |  | inactive: 19.6% [at 12.7 µM] |

| Structure (SMILES) | Potency | activity, negative = inhibition |
| --- | --- | --- |
| Nc1cccc(Oc2ccc([N+](=O)[O-])cc2)c1 | inconclusive: 6.31 µM [inhibitor, single point] |  |
| COc1ccc(-n2c(=S)[nH]c3cc(C(=O)NCCCN4CCOCC4)ccc3c2=O)c(OC)c1 | inconclusive: 89.1 µM [inhibitor, single point] |  |
| O=C(CCC(=O)N1CCOc2ccc(Cl)cc21)NCCCN1CCC(Cc2ccccc2)CC1 | inactive |  |
| O=C(OCc1cc(=O)n2c3c(sc2n1)CCCC3)c1cccc(NC(=O)c2ccccc2F)c1 | inactive |  |
| Cc1ccc(-n2nnnc2-c2cnc3ccc(Cl)cc3c2-c2ccccc2)cc1 |  | inactive: 22.5% [at 0.0925 µM] |
| Cn1cc(CN2CCc3ccccc3C2)c2ccccc21 | inconclusive: 3.98 µM [inhibitor, single point] |  |
| Cc1ccc(NC(=O)N2CCCC2C(=O)Nc2ccc3c(c2)OCO3)cc1 (stereo not given) | inactive |  |
| O=C(NCC(=O)N(Cc1cccs1)C(C(=O)NC1CCCC1)c1ccncc1)c1ccco1 (stereo not given) |  | inconclusive: -67.8% [inhibitor] |
| Cc1ccc(C)c(-n2nnnc2SCC(=O)c2ccc3c(c2)NC(=O)CO3)c1 | active: 50.1 µM |  |
| CCC1CCCCN1CCCNC(=O)CNC(=O)c1nn(-c2ccc(OC)c(Cl)c2)c(=O)c2ccccc12 (stereo not given) |  | inactive: 15.7% [at 12.7 µM] |
| Cc1cc(Br)ccc1NC(=O)C1(S(=O)(=O)c2ccc(Cl)cc2)CC1 | inactive |  |
| O=c1cc(COc2ncnc3c(Cl)cc(Cl)cc23)nc2sccn12 | inconclusive: 89.1 µM [inhibitor, single point] |  |
| COc1ccccc1N1CC(C(=O)Nc2cc(C(F)(F)F)ccc2N2CCCC2)CC1=O (stereo not given) | inconclusive: 70.8 µM [inhibitor, partial curve, poor fit] |  |
| O=C(Nc1cccnc1)c1noc2c1CCCCC2 | inconclusive: 39.8 µM [inhibitor, single point] |  |
| CC1CCCCN1CC(=O)N1CCCc2c1c(=O)oc1ccc(OCc3ccccc3)cc21 (stereo not given) | inconclusive: 12.6 µM [inhibitor, partial curve] |  |
| O=C1CN(C(=O)c2ccc3nc(Cc4cccc(Cl)c4)oc3c2)CCN1 | inactive |  |
| CCOC(=O)C1Oc2ccccc2C(C(=O)OC)=C1C(=O)OC (stereo not given) | inconclusive: 35.5 µM [inhibitor, single point] |  |
| O=C(O)c1cncc(C#Cc2ccccc2)c1 | inconclusive: 89.1 µM [inhibitor, single point] |  |
| O=C1Cc2ccccc2C(=O)N1CCc1ccccc1 | active: 31.6 µM |  |
| Cc1cccc(NC(=O)CN(C)S(=O)(=O)c2ccc3c(c2)c(=O)n(C)c(=O)n3C)c1 | inactive |  |
| N#Cc1cccc(C(=O)OCc2cccc(S(=O)(=O)N3CCOCC3)c2)c1 | inconclusive: 89.1 µM [inhibitor, single point] |  |
| CCC(=O)c1c[nH]c(C(=O)NCc2cccs2)c1 |  | inactive: 20.6% [at 12.7 µM] |
